Measurements as given in the supplement of paper PMC3334620.
Whole data set: some 33,000 sequences, median “E-score (-0.5 to 0.5)” near -0.011, cut for the highest 2% near 0.28. The list shows a part of the results.

Target: T1, Gcr1 (UniProt P07261)
T1 sequence: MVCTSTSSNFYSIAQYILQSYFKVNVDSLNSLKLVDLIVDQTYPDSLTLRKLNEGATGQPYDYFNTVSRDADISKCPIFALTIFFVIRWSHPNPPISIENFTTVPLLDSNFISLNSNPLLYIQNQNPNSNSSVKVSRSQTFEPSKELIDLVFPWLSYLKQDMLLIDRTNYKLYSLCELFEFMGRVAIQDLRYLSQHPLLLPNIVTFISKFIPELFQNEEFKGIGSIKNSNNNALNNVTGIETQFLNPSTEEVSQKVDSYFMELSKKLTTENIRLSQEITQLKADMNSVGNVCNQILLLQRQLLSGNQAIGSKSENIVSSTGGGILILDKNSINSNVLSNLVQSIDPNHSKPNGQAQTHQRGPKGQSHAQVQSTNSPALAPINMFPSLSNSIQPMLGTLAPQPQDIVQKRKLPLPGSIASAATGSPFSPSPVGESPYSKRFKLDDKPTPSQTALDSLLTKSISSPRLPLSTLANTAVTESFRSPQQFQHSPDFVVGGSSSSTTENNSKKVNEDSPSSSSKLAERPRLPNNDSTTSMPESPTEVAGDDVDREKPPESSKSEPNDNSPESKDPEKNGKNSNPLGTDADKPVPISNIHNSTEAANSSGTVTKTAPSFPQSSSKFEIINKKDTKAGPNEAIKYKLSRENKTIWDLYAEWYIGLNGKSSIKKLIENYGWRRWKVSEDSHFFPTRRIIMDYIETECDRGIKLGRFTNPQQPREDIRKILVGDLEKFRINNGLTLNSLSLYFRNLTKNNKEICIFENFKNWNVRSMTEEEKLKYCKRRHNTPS
Assay: PBM E-score (8-mer binding enrichment) (E-score (-0.5 to 0.5)); higher = stronger / more preferred TF binding; most listed sequences are background and not binding sites
Conditions: protein concentration: 100 nM; construct: GST-full length
How it was run: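 Using PURExpress in vitro transcription/translation, GST-tagged yeast transcription factors were made in full-length or DNA-binding-domain form. These were applied at about 100-200 nM to double-stranded universal all-10-mer Agilent arrays, and bound protein was detected with fluorescent anti-GST. Scans were normalised with masliner before the Universal PBM Analysis Suite assigned E-scores to ungapped eight-base words pooled with their reverse complements.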

Sequence	PBM E-score
ATTATGTA	0.046
ATCTTAGA	0.15
CACAGCGA	0.04
CCGTTACC	0.0778
ATACGCTA	0.0157
AGACGGAG	-0.0738
GATATGAA	0.163
GTCGAATA	0.046
CATAATGG	0.122
ACTCTTCA	-0.15
ACCGGTTG	0.209
CGTCTCTC	0.0558
ACTCCCCC	-0.283
ACTTGAAC	-0.0446
AAGTATAC	-0.116
GTGACGCA	-0.184
ACGTCTGG	-0.0669
CACTAATG	0.0443
ACCAGTCT	-0.0823
ATAAGGCC	-0.329
AGTCGATA	-0.127
AGATGGGA	0.113
AGCAATGC	-0.271
AGACAGAT	0.0319
AACACGGC	-0.0258

Sequence	PBM E-score
AGTCTGGG	-0.0397
AACTCTTG	0.0172
TGGCTAAA	-0.0291
GTAAAAAA	-0.0598
GTGCGCCA	-0.0685
AAACGAAG	0.111
CGACGTTC	-0.286
GATCAAAA	0.0608
TGTCATAA	0.109
GCGACTCC	-0.133
CTCTGCAA	-0.0101
ATTCCTAA	0.284
GTGCGTGA	-0.00808
AATGCGTA	0.0382
ACTCTTTA	-0.0543
ACATCCTA	0.166
CAAGGCTA	-0.235
CTCGCGCC	-0.166
AGCGACTA	0.117
ATGCCGCC	-0.11
CTTGCATC	-0.221
AAAAGACC	-0.00226
CATGCAAC	-0.0896
CCAGCGAC	-0.0314
CTAATAAC	0.161

Sequence	PBM E-score
AGTATAGG	0.0498
ACGGAAAT	-0.0723
GAACGCAA	0.0412
ATCGTCGG	-0.119
ACTCGTTC	-0.0676
ACTGCGTC	-0.0392
CTTGCGAA	0.0573
CGCAACTC	-0.0691
GCGAGTCA	-0.212
TAGCACCA	0.323
ACCCAGGT	0.0419
AACAAAAA	0.12
AGGTTAGG	0.109
AAAAGGTG	0.215
ATACTAGG	0.122
ATCACGCG	0.00311
AAGGGCCC	0.00768
AGAAGTTA	0.0491
CCCCCGAG	-0.0739
AGGCCCGG	-0.216
AGCGTACA	-0.155
ATCATGGG	-0.0551
ACCAGCGT	-0.00704
CCCAATCG	-0.0423
GATGATAA	0.0119

Sequence	PBM E-score
ATTCAAGG	-0.113
AACTGAGA	-0.121
CACAAGCA	0.156
GGGCAACA	0.0933
GAGTGTAC	-0.169
GTAGCACA	-0.0396
AAACTGGT	0.178
GACACTGA	-0.121
CCTTGAAC	-0.294
ACCAATCC	-0.0145
ACAAGGCC	-0.215
CTGATTTA	0.0256
AGCTGGAT	0.119
CTTATACA	0.0877
GGTAAGAC	-0.228
CTCAAATA	0.0926
ACAATTAG	0.205
CCCGCACC	0.118
GATCATCC	-0.0802
ATGTTCCG	-0.119
AACCGGAT	0.255
CGGACGGA	-0.139
GGGGTTAA	-0.0298
AGAGTTTA	0.0347
CACGTCCG	-0.318

Sequence	PBM E-score
AGAGACAT	0.116
AGTGACGA	0.139
GCCATGAC	-0.171
GTAATTCA	0.206
ATGTACGA	-0.0468
CAGGAACG	0.118
AAAAGCGT	-0.0175
AAGCTATC	0.0651
ACCTCCAG	-0.133
CGACAGGC	-0.135
ACGGGTAG	-0.0238
ATGAAGTG	0.0228
GTAACCGA	-0.0211
ATCAGTGC	-0.049
CTGAGAGA	-0.139
ATGGTGTA	-0.0627
GGAGCACA	-0.173
AGCGCTCC	0.0561
AAAATTTG	0.0315
GGTGCGTA	0.157
CAAAAATC	-0.047
ATGCTAAA	0.111
AGCGTAAA	0.0979
AACACGCG	0.0183
CATCTTGC	0.123

Sequence	PBM E-score
ACCGCAAT	0.0212
CCACAGCA	0.0259
AGATAACT	-0.24
ATTTGCCA	-0.00458
CATATGCC	-0.0924
TCTCACCA	-0.0569
GCGGATCA	-0.0729
ATGGTTCG	-0.192
GGTCAATA	-0.0501
GAAGGTCC	-0.204
ACACCTGG	0.123
TGGGTTAA	-0.0918
ACGTTACC	-0.107
CCAGGGAA	0.0615
GTGTCACA	-0.0101
CGATGGGA	-0.0436
GTTCCAGA	0.257
ATTCAATC	-0.0693
GGGCCAAA	-0.0493
CGTTGATA	0.138
GCACATCA	0.0439
AGGAGATG	0.0682
TAGACTAA	-0.134
CACTGTGG	0.141
ACGTACAG	-0.174

Sequence	PBM E-score
ACGACGCG	0.0493
GCAGCAGC	0.307
AGTGACTC	0.00078
ACCACGCA	-0.0497
CATACGCC	0.0292
AGTTCTAA	-0.0873
CCCCAATA	0.0796
AAACCATC	-0.0212
AACCGACG	0.0222
CCGGAAGA	0.043
AGTAAGGC	-0.0549
GAGTTGGC	-0.135
AAAGGTCC	-0.113
ACCTTGGA	-0.00292
AGAGAGTG	-0.0865
ACTTATGA	0.0813
GCTTTTTA	0.0359
CTGGATAA	0.132
ACGTGAGA	-0.0931
AGGCCCCC	0.133
TAAGTCGA	-0.0789
GTTCGATA	0.0564
